Residue numbers refer to the chain shown, from its start.
T1: human IL-1R-I (human, UniProt P14778 18-332, limits assumed)
T1 construct: bought recombinant protein; also called hIL-1R-I; hIL-1RI
T1 sequence (looked up): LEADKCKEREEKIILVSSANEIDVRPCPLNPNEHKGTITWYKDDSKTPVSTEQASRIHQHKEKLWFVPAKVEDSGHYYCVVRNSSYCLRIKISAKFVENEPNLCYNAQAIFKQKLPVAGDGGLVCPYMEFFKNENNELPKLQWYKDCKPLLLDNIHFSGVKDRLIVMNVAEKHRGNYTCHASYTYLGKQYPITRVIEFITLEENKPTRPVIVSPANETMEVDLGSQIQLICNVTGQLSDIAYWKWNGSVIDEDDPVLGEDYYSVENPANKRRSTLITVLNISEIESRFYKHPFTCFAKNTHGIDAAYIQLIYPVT

B1: Z15876 (His6-Z) (designed binder)
chain: MGSSHHHHHHLQVDAKYAKEIEAAQMEIFGLPNLTRKQYTAFIRKLFDDPSQSSELLSEAKKLNDSQAPKVD
B2: Z18800 (His6-Z) (designed binder)
chain: B1 chain with A23E, A24I, G30R, K37R, F47L
B3: Z19075 (His6-Z) (designed binder)
chain: B1 chain with I21V, A23I, A24I, M26Y, F47L
B4: Z18769 (His6-Z) (designed binder)
chain: B1 chain with I21V, A23E, A24V, G30H, K37R, F47L
B5: Z19158 (His6-Z) (designed binder)
chain: B1 chain with I21T, A23E, A24I, G30A, K37R, F47L
B6: Z18799 (His6-Z) (designed binder)
chain: B1 chain with I21V, A24I, G30H
B7: Z18893 (His6-Z) (designed binder)
chain: B1 chain with A23E, A24I, F47L
B8: Z18856 (His6-Z) (designed binder)
chain: B1 chain with I21L, A23E, A24I, G30H, K37R, F47L
B9: Z18882 (His6-Z) (designed binder)
chain: B1 chain with I21V, A23E, A24V, G30D, K37R, F47L
B10: Z18770 (His6-Z) (designed binder)
chain: B1 chain with I21T, A23R, A24V, G30S, K37R, F47L
B11: Z19147 (His6-Z) (designed binder)
chain: B1 chain with I21L, A23E, A24I, G30Y, K37R, F47L
B12: Z18817 (His6-Z) (designed binder)
chain: B1 chain with I21V, A23E, A24I, G30R, K37R
B13: Z18863 (His6-Z) (designed binder)
chain: B1 chain with I21V, A23E, A24V, K37R, F47L
B14: Z18762 (His6-Z) (designed binder)
chain: B1 chain with I21L, A24I, G30R, K37R, F47L
B15: Z18850 (His6-Z) (designed binder)
chain: B1 chain with A23E, A24I, G30A, K37R, F47L
B16: Z19143 (His6-Z) (designed binder)
chain: B1 chain with I21V, A23E, A24I, M26L, G30H, K37R, R44I, F47L
B17: Z18866 (His6-Z) (designed binder)
chain: B1 chain with A23E, A24I, G30H, F47L
B18: Z18853 (His6-Z) (designed binder)
chain: B1 chain with A23E, A24I, G30Y, K37R
B19: Z18920 (His6-Z) (designed binder)
chain: B1 chain with I21T, A23E, A24I, G30R, K37R, F47L
B20: Z18898 (His6-Z) (designed binder)
chain: B1 chain with I21L, A24I, G30Y, K37R, T40V, F47L
B21: Z18875 (His6-Z) (designed binder)
chain: B1 chain with A24I, G30H, K37R, F47L
B22: Z15932 (His6-Z) (designed binder)
chain: B1 chain with I21V, A23E, G30I, F47L
B23: Z19151 (His6-Z) (designed binder)
chain: B1 chain with I21V, A23D, A24I, M26L, G30A, K37R, F47L
B24: Z18888 (His6-Z) (designed binder)
chain: B1 chain with I21V, A24I, G30H, F47L
B25: Z19168 (Z-ABD) (designed binder)
chain: AQHDEALEVDAKYAKEIERIQMEIFYLPNLTRRQYTAFIRKLFDDPSQSSELLSEAKKLNDSQAPKVDYVLAEAKVLANRELDKYGVSDYYKNLINNAKTVEGVKALIDEILAALPYVPG
B26: Z19181 (Z-ABD) (designed binder)
chain: B25 chain with I17V, R19E, I20V, M22L, F25Y, Y26S, F43L
B27: Z19182 (Z-ABD) (designed binder)
chain: B25 chain with I17V, R19A, Y26Q, F43L
B28: Z19302 (Z-ABD) (designed binder)
chain: B25 chain with R19A, I20V, Y26H, R33K, F43L
B29: Z19303 (Z-ABD) (designed binder)
chain: B25 chain with I17T, R19A, I20V, Y26T, F43L
B30: Z19171 (Z-ABD) (designed binder)
chain: B25 chain with R19D, M22L, Y26G, R33K, F43L
B31: Z19183 (Z-ABD) (designed binder)
chain: B25 chain with R19D, I20A, F25Y, Y26D, F43L
B32: Z19304 (Z-ABD) (designed binder)
chain: B25 chain with I17T, R19Q, I20V, Y26H, R33K, F43L
B33: Z19305 (Z-ABD) (designed binder)
chain: B25 chain with I17T, R19A, I20V, Y26R, F43L
B34: Z19170 (Z-ABD) (designed binder)
chain: B25 chain with I17V, R19E, Y26E, F43L
B35: Z19172 (Z-ABD) (designed binder)
chain: B25 chain with I17L, R19D, I20V, M22L, Y26S, F43L
B36: Z19169 (Z-ABD) (designed binder)
chain: B25 chain with I17V, R19V, Y26G, F43L
B37: Z19180 (Z-ABD) (designed binder)
chain: B25 chain with I17V, R19I, Y26H, F43L

molecular target: T1, human IL-1R-I; assay: SPR; hIL-1R-I immobilized, His6-Z injected

| Kd [pM] | koff [s⁻¹] | kon [M⁻¹ s⁻¹] | Binder |
| --- | --- | --- | --- |
| 800 | 0.0041 | 5.2e+06 | B1 |
| 140 | 0.0025 | 1.8e+07 | B2 |
| 450 | 0.0064 | 1.4e+07 | B3 |
| 160 | 0.0031 | 1.9e+07 | B4 |
| 160 | 0.0044 | 2.7e+07 | B5 |
| 180 | 0.0045 | 2.6e+07 | B6 |
| 270 | 0.0024 | 8.6e+06 | B7 |
| 120 | 0.0057 | 4.6e+07 | B8 |
| 250 | 0.003 | 1.2e+07 | B9 |
| 170 | 0.005 | 3e+07 | B10 |
| 150 | 0.0043 | 2.8e+07 | B11 |
| 170 | 0.0048 | 2.8e+07 | B12 |
| 220 | 0.0048 | 2.2e+07 | B13 |
| 130 | 0.0052 | 4.2e+07 | B14 |
| 170 | 0.0023 | 1.3e+07 | B15 |
| 220 | 0.0039 | 1.7e+07 | B16 |
| 120 | 0.0042 | 3.6e+07 | B17 |
| 140 | 0.003 | 2.2e+07 | B18 |
| 150 | 0.0055 | 3.6e+07 | B19 |
| 66 | 0.0044 | 6.7e+07 | B20 |
| 120 | 0.0028 | 2.4e+07 | B21 |
| 640 | 0.011 | 1.8e+07 | B22 |
| 250 | 0.007 | 2.8e+07 | B23 |
| 160 | 0.0029 | 1.8e+07 | B24 |

molecular target: T1, human IL-1R-I; assay: SPR screening; Z-ABD captured on anti-ABD, 100 nM hIL-1R-I injected

| Kd [pM] | Binder |
| --- | --- |
| 4600 | B25 |
| 9700 | B26 |
| 2800 | B27 |
| 3200 | B28 |
| 4000 | B29 |
| 3000 | B30 |
| 12000 | B31 |
| 4500 | B32 |
| 3800 | B33 |
| 2000 | B34 |
| 4500 | B35 |
| 2700 | B36 |
| 790 | B37 |
